# Laboratory results: PubChem BioAssay AID651820 (National Center for Advancing Translational Sciences (NCATS), 2012)
# Values joined by “and” are separate entries in the source; they are usually repeats but may differ in a detail not shown here. Identical values can stand only once. The campaign covered roughly 340,000 compounds. About 12,000 (3.5%) were called active. The inconclusive results got no clear call from the source; some entries with a clear call stand among them for comparison. Calls follow the shape of the dose curve; as a rule, active = well fitted inhibition curve with a large enough effect; inconclusive = small, poorly fitted or top-dose-only effect, or another doubt; inactive = no such curve, though single readings can be large or run the other way. A potency beside an inconclusive call is a rough fit, not a confirmed value. A structure can be active in one record and inactive in another.
# Assay: qHTS Assay for Inhibitors of Hepatitis C Virus (HCV)
# Details: Huh7.5.1 HCVcc-Cre (HCVcc is cell-culture hepatitis C virus) infection, luciferase reporter, 44 h; series mostly up to 41.8 µM
# Summary of the method: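 1,000 cells/well; 4 h culture; + compound; + HCVcc-Cre (~0.5 moi); 44 h; luciferase substrate, RT 15 min; read 15 sec.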
# Potency is read from the fitted curve at half-maximal effect; tags tell the direction and shape of the fitted curve.
row,Structure (SMILES),Potency
1,Cc1cc(C(=O)OCC(=O)Nc2ccc(F)cc2)c(C)n1C1CC1,"inconclusive: 2 µM [inhibitor, partial curve]"
2,O=C(COC(=O)CCSc1ccccc1)Nc1cc(F)ccc1F,inactive
3,CCCOc1ccc(/C=N/NC(=S)Nc2ccccc2[N+](=O)[O-])c(O)c1,"inconclusive: 31.6 µM [inhibitor, single point]"
4,CCc1ccc([C@H]2C(C(=O)O)=C[C@@H](CC3CCCC3)N2S(=O)(=O)c2ccc(C)cc2)cc1,"inconclusive: 0.562 µM [inhibitor, partial curve, poor fit]"
5,Cc1nnc2sc(SCC(=O)N3CCc4ccccc43)nn2c1=O,inactive
6,CCC(CC)C(=O)Nc1cc(C)c2c(=O)oc3ccccc3c2n1,"inconclusive: 11.2 µM [inhibitor, single point]"
7,COc1ccc(/C=C/C(=O)NC(=S)NNC(=O)c2c(-c3ccccc3)noc2C)cc1,"inconclusive: 31.6 µM [inhibitor, single point]"
8,CN1C(=O)C(C)(C)c2cc(S(=O)(=O)N3CCC(C(=O)NCc4ccc(Cl)cc4)CC3)ccc21,"inconclusive: 11.2 µM [inhibitor, partial curve]"
9,N[C@@H](Cc1ccc(F)cc1)C(=O)O,inactive
10,CCN1CCN(c2ccc(S(=O)(=O)N3CCCCC3)cc2NC(=O)c2cccc(NC(C)=O)c2)CC1,"inconclusive: 31.6 µM [inhibitor, single point]"
11,Cc1nc2ccccc2n1CC(=O)NC(C)C1CC2CCC1C2 (stereo not drawn),"inconclusive: 0.891 µM [inhibitor, full curve]"
12,COc1ccc(-c2cc(-c3ccc(C)cc3)n[nH]2)c(O)c1,"inconclusive: 31.6 µM [inhibitor, single point]"
13,CCCNC(=O)CN1CCC(c2nc3ccccc3[nH]2)CC1,"inconclusive: 31.6 µM [inhibitor, single point]"
14,CCCn1c(CNc2ccc(Br)cc2)nc2ccccc21,"inconclusive: 28.2 µM [inhibitor, single point]"
15,CCCN(C(=O)c1cccc(S(=O)(=O)N2CCN(Cc3ccccc3)CC2)c1)C1CCS(=O)(=O)C1 (stereo not drawn),"inconclusive: 1.12 µM [inhibitor, partial curve, poor fit]"
16,CC1CCc2c(sc(NC(=O)c3ccc(N4C(=O)CCC4=O)cc3)c2C(N)=O)C1 (stereo not drawn),"inconclusive: 2.82 µM [inhibitor, full curve]"
17,COc1ccc(CCNC(=O)C(=O)NCC2CCCN2S(=O)(=O)c2ccccc2)cc1 (stereo not drawn),"inconclusive: 31.6 µM [inhibitor, single point]"
18,Cc1cc(N2CCN(C(=O)c3ccco3)CC2)n2nc(C)c(-c3ccccc3)c2n1,active: 3.55 µM
19,COc1ccc(C(CNC(=O)COc2ccc(F)cc2Br)N2CCCC2)cc1 (stereo not drawn),"inconclusive: 0.891 µM [inhibitor, full curve]"
20,COc1cccc2c(C)nc(Nc3nc(CSc4nnc(C)s4)cc(=O)[nH]3)nc12,inactive
21,Cc1ccc(NC(=O)COC(=O)c2c(C)nn(-c3ccccc3)c2C)cc1,"inconclusive: 7.08 µM [inhibitor, partial curve]"
22,COc1ccc2nc(NC(=O)c3ccccc3[N+](=O)[O-])sc2c1,"inconclusive: 7.08 µM [inhibitor, partial curve]"
23,COc1ccc(/C=[N+](\[O-])C2N(c3ccccc3)C(=S)SC2(C)C)cc1OC (stereo not drawn),inactive

row,Structure (SMILES),Potency
1,CCCN(CCC)CCCNC(=O)c1cc2cc3ccc(OC)cc3nc2o1,"inconclusive: 11.2 µM [inhibitor, single point]"
2,C[C@H](NC(=O)[C@@H]1Cc2ccccc2CN1C(=O)OC(C)(C)C)C(=O)NC1CCCCC1,inactive
3,CCOC(=O)/C=C1\CC(=O)Nc2cc(C)c(C)cc2N1,inactive
4,Cc1ccc(OCC(=O)Nc2ccccc2C(=O)N2CCCC2)cc1,inactive
5,COc1ccccc1NC(=O)c1ccc(COc2ccccc2Br)o1,"inconclusive: 28.2 µM [inhibitor, single point]"
6,Cc1ccc(-c2nnn(CC(=O)N(c3ccccc3F)C(C(=O)NCC3CCCO3)c3c[nH]c4ccccc34)n2)cc1 (stereo not drawn),"inconclusive: 22.4 µM [inhibitor, single point]"
7,O=C(NCc1ccc2c(c1)OCO2)c1c[nH]c2ccc(S(=O)(=O)N3CCOCC3)cc2c1=O,inactive
8,O=C(CSc1nc(-c2ccco2)cc(C(F)(F)F)n1)Nc1ccc(C(=O)N2CCOCC2)cc1,active: 10 µM
9,CN1CCN(c2ccc(Cl)cc2NC(=O)c2ccc(S(=O)(=O)N(C)C)cc2)CC1,inactive
10,CC(=O)c1ccc(NC(=O)COc2ccccc2C(=O)Nc2ccccc2)cc1,"inconclusive: 31.6 µM [inhibitor, single point]"
11,O=C(CN1C(=O)COc2ccccc21)N1CCc2ccccc2C1,inactive
12,CC(=O)c1ccc(S(=O)(=O)Nc2c(C)nn(C)c2C)cc1,"inconclusive: 11.2 µM [inhibitor, single point]"
13,Nc1cc(=O)[nH]c(SCC(=O)NC2CCCc3ccccc32)n1 (stereo not drawn),"inconclusive: 31.6 µM [inhibitor, single point]"
14,COc1ccc(NC(=O)CC(c2ccco2)C(C)C)cc1 (stereo not drawn),inactive
15,CCOc1ccccc1N(C(=O)c1snc(C(N)=O)c1N)C(CC)C(=O)NC1CCCC1 (stereo not drawn),"inconclusive: 2.24 µM [inhibitor, full curve, poor fit]"
16,CC(C)CN(C(=O)COC(=O)c1ccc([N+](=O)[O-])s1)c1c(N)n(Cc2ccccc2)c(=O)[nH]c1=O,"inconclusive: 10 µM [inhibitor, partial curve]"
17,Cc1ccc(Sc2ncccc2COC(=O)NC(C)C)cc1,inactive
18,CC(NC(=S)Nc1ccc(OC(F)F)cc1OC(F)F)C(C)(C)C (stereo not drawn),"inconclusive: 10 µM [inhibitor, single point]"
19,CCSC1=C(C#N)C2(CCCCC2)C(C#N)=C(N)N1,"inconclusive: 6.31 µM [inhibitor, partial curve]"
20,C=CCOc1ccc2c(OC)c3ccoc3nc2c1OC,"inconclusive: 12.6 µM [inhibitor, partial curve, poor fit]"
21,CCCCOc1ccc(NC2=NC3(CCCCC3)N=C(N)N2)cc1,"inconclusive: 22.4 µM [inhibitor, single point] and inconclusive: 11.2 µM [inhibitor, partial curve]"
22,Cc1ncc(CN=Cc2ccc(Cl)cc2)c(N)n1,inactive
23,O=C(COC(=O)c1ccccc1OCc1ccccc1Cl)NCC1CCCO1 (stereo not drawn),inactive

row,Structure (SMILES),Potency
1,CCC(CO)Oc1cc(NCc2cc(C)cc(C)c2)c2ncn(C(C)C)c2c1 (stereo not drawn),active: 1.58 µM
2,O=C(Cn1c(=O)cnc2ccccc21)NNC(=O)c1ccc(Cl)cc1,inactive
3,COc1ccccc1CCNC(=O)c1cccc(S(=O)(=O)NCc2ccccc2)c1,"inconclusive: 35.5 µM [inhibitor, partial curve]"
4,Cc1c(Cc2ccccc2)c(=O)oc2cc(OCC(=O)NCc3ccccn3)ccc12,"inconclusive: 11.2 µM [inhibitor, partial curve]"
5,COc1ccc(OC)c(NC(=O)C(=O)/C=C(\O)c2cc(OC)ccc2OC)c1,"inconclusive: 12.6 µM [inhibitor, single point]"
6,N#Cc1ccc(NC(=O)CN2CCCC2)cc1Cl,"inconclusive: 5.01 µM [inhibitor, single point]"
7,COc1ccc2oc(C(=O)OCC(=O)N(C)Cc3ccccc3)c(C)c2c1,"inconclusive: 5.01 µM [inhibitor, full curve, poor fit]"
8,COc1ccccc1C(=O)NCCC(=O)Nc1ccc(S(=O)(=O)N2CC(C)CC(C)C2)cc1 (stereo not drawn),"inconclusive: 0.501 µM [inhibitor, full curve, poor fit]"
9,CCC(CC)COC(=O)C1=C(C)NC(=O)NC1c1ccc([N+](=O)[O-])cc1 (stereo not drawn),"inconclusive: 15.8 µM [inhibitor, single point]"
10,COc1ccc(C(=O)N(Cc2ccco2)Cc2cc3cc(C)ccc3[nH]c2=O)cc1OC,"inconclusive: 7.94 µM [inhibitor, partial curve]"
11,Cc1ccc(-c2cn(CCN)c(-c3ccncc3)n2)cc1,"inconclusive: 22.4 µM [inhibitor, single point]"
12,O=C(Nc1sccc1C(=O)NCc1ccco1)c1cccnc1,"inconclusive: 22.4 µM [inhibitor, single point]"
13,COc1ccccc1NC(=O)c1cccs1,"inconclusive: 5.01 µM [inhibitor, single point]"
14,COC(=O)CC1C(=O)NCCN1C(=S)Nc1cccc(C)c1 (stereo not drawn),inactive
15,COc1ccc(-c2ccc3c(c2)[C@@H]2C[C@H](N(C)C(=O)Nc4ccccc4)[C@H]([C@H](C)O)C(=O)N2CC3)cc1,active: 2 µM
16,CCOc1ccc(NS(=O)(=O)c2cc(NC(=O)c3cccc(C)c3)ccc2Cl)cc1,active: 11.2 µM
17,O=C(Cc1cccc2ccccc12)Nc1ccc2oc(-c3ccccc3)nc2c1,"inconclusive: 6.31 µM [inhibitor, full curve]"
18,Cc1cccc2nc3ccccc3nc12,inactive
19,O=C(Nc1ccc2c(c1)CCC2)c1ccc(Cl)nc1,"inconclusive: 25.1 µM [inhibitor, single point]"
20,Cc1ccc(CN(C(=O)C(F)(F)F)C(C(=O)NC2CCCCC2)c2ccco2)cc1 (stereo not drawn),"inconclusive: 10 µM [inhibitor, single point]"
21,O=C(NCCN1C(=O)S/C(=C\c2ccc(OC(F)F)cc2)C1=O)c1cnccn1,"inconclusive: 7.08 µM [inhibitor, partial curve]"
22,CC(Nc1cc(N2CCN(C(=O)C(C)(C)C)CC2)ccc1[N+](=O)[O-])c1ccccc1 (stereo not drawn),"inconclusive: 11.2 µM [inhibitor, partial curve]"
